Several values for one entry are separate records, joined by “and”; a condition that tells them apart may be missing. Equal entries are not always repeated. Inconclusive results, whose numbers are uncertain, are shown with a selection of clear calls. Where the call is inconclusive, the potency comes from a doubtful curve fit. Some compounds were tested as several samples or in several runs, with calls that do not always agree. Activity calls are given as the source filed them. The call rests on the fitted dose curve; in most records, active means well fitted cell-killing curve with a large enough effect in the repeat runs; inconclusive means weak or mixed curves, or effect the other way; inactive means flat fitted curve, though single readings scatter.
Test: qHTS assay to identify small molecule antagonists of the estrogen receptor alpha (ER-alpha) signaling pathway using the BG1 cell line in the presence of 0.1 nM 17-beta-estradiol - cell viability counter screen (AID 1259241); further: nearly all actives have a fitted effect of over 40% in size
Conditions: VM7Luc4E2 (BG1) viability, CellTiter-Fluor protease, 22 h, 0.1 nM estradiol agonist added; series mostly up to 92.4 µM
Outline: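 VM7Luc4E2 cells (endogenous full-length ER-alpha, 4xERE-luciferase), cultured 5 days in charcoal-stripped serum, exposed to compounds with 0.1 nM 17beta-estradiol (final) for 22 hr at 37C. Viability read in same wells as live-cell protease fluorescence after 30 min.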
Potency means the concentration at half of the fitted maximal effect; tags describe the fitted curve by direction and shape.

| SMILES | Potency |
| --- | --- |
| C=CCOC(Cn1ccnc1)c1ccc(Cl)cc1Cl (stereo not drawn) | inconclusive: 48.7 µM [cytotoxic, partial curve, poor fit] and inconclusive: 68.6 µM [cytotoxic, partial curve, poor fit] |
| CN(C)C(=S)[S-].CN(C)C(=S)[S-].[Cu+2] | active: 1.67 µM |
| CCCCCCCCCCCC[N+](C)(C)CCOc1ccccc1 | inconclusive: 68.6 µM [cytotoxic, single point] |
| N#CC(CCc1ccc(Cl)cc1)(Cn1cncn1)c1ccccc1 (stereo not drawn) | inconclusive: 61.1 µM [cytotoxic, partial curve] |
| COP(=S)(OC)Oc1ccc(Sc2ccc(OP(=S)(OC)OC)cc2)cc1 | inactive |

Test: qHTS assay to identify small molecule antagonists of the androgen receptor (AR) signaling pathway using the MDA cell line in the presence of 0.5 nM R1881 - cell viability counter screen (AID 1259242); further: nearly all actives have a fitted effect of over 45% in size
Conditions: MDA-kb2 viability, CellTiter-Fluor protease fluorescence, 16 h; series mostly up to 92.4 µM
Outline: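 Steps: plate MDA-kb2 cells, rest 5 hr at 37C without CO2; pin in compounds in DMSO; add R1881 to 0.5 nM final; incubate 16 hr; add CellTiter-Fluor, 30 min; read fluorescence.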

| SMILES | Potency |
| --- | --- |
| C=CCOC(Cn1ccnc1)c1ccc(Cl)cc1Cl (stereo not drawn) | inconclusive: 61.3 µM [cytotoxic] |
| CC[N+]1(C)CCCC1 | inconclusive: 61.3 µM [cytotoxic, partial curve, poor fit] |
| C/C(=C\c1ccccc1)[N+](=O)[O-] | inconclusive: 24.3 µM [cytotoxic, full curve] |
| O=C(N[C@H](c1ccccc1)[C@@H]1CN2CCC1CC2)c1c(Cl)ccc(C(F)(F)F)c1Cl | inconclusive: 98.4 µM [cytotoxic, partial curve, poor fit] |
| CN(C)C(=S)[S-].CN(C)C(=S)[S-].[Cu+2] | active: 5.92 µM |
| Clc1ccc(CO/N=C(\Cn2ccnc2)c2ccc(Cl)cc2Cl)c(Cl)c1 | inconclusive: 33.5 µM [cytotoxic, single point] |
| CCCCCCCCCCCC[N+](C)(C)CCOc1ccccc1 | active: 48.6 µM and inactive |
| N#CC(CCc1ccc(Cl)cc1)(Cn1cncn1)c1ccccc1 (stereo not drawn) | inconclusive: 61.1 µM [cytotoxic, single point] |
| O=C(CCl)C(Cl)Cl | inconclusive: 30.9 µM [cytotoxic, partial curve] |
| CCC(=O)C(CC(C)N(C)C)(c1ccccc1)c1ccccc1 (stereo not drawn) | inconclusive: 68.9 µM [cytotoxic, partial curve, poor fit] |
| Oc1c(Cl)c(Cl)cc(Cl)c1Cl | inconclusive: 74.8 µM [cytotoxic] |
| COP(=S)(OC)Oc1ccc(Sc2ccc(OP(=S)(OC)OC)cc2)cc1 | inconclusive: 68.6 µM [cytotoxic] |
| CN1C[C@H](CNC(=O)OCc2ccccc2)C[C@@H]2c3cccc4c3c(cn4C)C[C@H]21 | inconclusive: 33.5 µM [cytotoxic, single point] |
